Values joined by “and” are separate entries in the source; they are usually repeats but may differ in a detail not shown here. Equal values may be shown once. The list shows a part of the results. The main result of the screen is listed elsewhere. These columns were measured beside it and carry no call. Compounds called inactive in the main read-out are mostly missing here. The note in brackets gives the kind of curve behind each potency; many fits are weak.

In PubChem BioAssay (NCATS) one finds max response and AC50 data, which are given here for 13 compounds.

The nature of assay [1]: qHTS Assay for Lipid Storage Modulators (AID 1519). The conditions noted are these: Drosophila S3 cells, BODIPY lipid droplet/cell ratio, laser cytometry, cells loaded with oleic acid. In a few lines: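 Cells seeded at 5,000 per well were treated with compounds over a concentration series and loaded with oleic acid (400 uM, as added). Lipid droplet fluorescence (488 nm excitation, 500-530 nm channel) was read by laser-scanning cytometry and normalized to 20 uM Triacsin C.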
In general terms: In qHTS, concentration-response curves come from the screen itself.

Assay [2] can be described thus: qHTS Assay for Modulators of Human Peripheral Myelin Protein 22 (PMP22) Expression/Activity (AID 1967). The conditions noted are these: Cell-based PMP22 reporter, dual-color luciferase ratio. In a few lines: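 MSC80 mouse Schwann cells stably carrying Pmp22 promoter–green click beetle luciferase plus EF-alpha–red luciferase control were dosed for 24h at 37 °C. Dual-colour luminescence was filter-overlap corrected; %Activity came from green/red ratio versus untreated cells.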

[3] abbreviates: measured here: cell count channel max response.
Setting [4] is: measured here: cell number channel AC50.
Setting [5] is: measured here: lipid (BODIPY) channel AC50.
Where [6] appears, read: measured here: lipid channel max response.
[7] abbreviates: measured here: green reporter channel AC50, mouse Pmp22 promoter in mouse Schwann cells.
Where [8] appears, read: measured here: red reporter channel AC50, EF-alpha promoter control reporter in MSC80 mouse Schwann cells.
Tags describe the fitted curve by direction and shape.

A word on the AC50: it is the midpoint of the concentration-response curve, whichever way the signal moves. Turning to `C[C@](N)(Cc1ccc(O)c(O)c1)C(=O)O`, the max response in assay [1] (setting [3]) is 38.4%; in assay [1] (setting [6]), 48.4%. The AC50 is 15.8 µM [rising, single point] in assay [1] (setting [4]); 31.6 µM [rising, single point] in assay [1] (setting [5]); 84.9 µM [falling, single point] in assay [2] (setting [7]); 84.9 µM [falling, single point] in assay [2] (setting [8]).
`N#CC(C#N)=C(N)/C(C#N)=C/c1ccc(O)cc1`: the max response in assay [1] (setting [3]) is -31%; in assay [1] (setting [6]) it was -51.6%. Besides, the AC50 in assay [1] (setting [4]) was 0.398 µM [falling, full curve, poor fit]; in assay [1] (setting [5]), 4.47 µM [falling, partial curve, poor fit]; in assay [2] (setting [8]), 75.7 µM [falling, single point].
Regarding `CCCN1C[C@H](CSC)C[C@@H]2c3cccc4[nH]cc(c34)C[C@H]21`, the max response in assay [1] (setting [3]) was 67.9% and -13.7%; in assay [1] (setting [6]) it was 73.2% and -11.5%. In addition, the concentration at half-maximal activity (AC50) in assay [1] (setting [4]) was 7.94 µM [rising, partial curve, poor fit] and 2.82 µM [falling, full curve]; in assay [1] (setting [5]), 8.91 µM [rising, full curve] and 2.82 µM [falling, full curve]; in assay [2] (setting [7]) it was 84.9 µM [falling, single point].
Regarding `COc1cc(CNC(=O)CCCCCCC(C)C)ccc1O`, the max response was 44.5% in assay [1] (setting [3]) and 46.7% in assay [1] (setting [6]). In addition, the AC50 in assay [1] (setting [4]) was 44.7 µM [rising, single point]; in assay [1] (setting [5]) it was 44.7 µM [rising, single point]; in assay [2] (setting [8]), 19 µM [rising, partial curve, poor fit].
For `CNC(=O)c1cc2c(cn1)[nH]c1ccccc12`, the max response in assay [1] (setting [3]) was 80.9% and 86.2%; in assay [1] (setting [6]) it was 108% and 84%. Besides, the AC50 is 1.26 µM [rising, full curve] in assay [1] (setting [4]); 1.26 µM [rising, full curve] in assay [1] (setting [5]); 84.9 µM [falling, single point] in assay [2] (setting [8]).
For the compound `COC(=O)C1=C(C)NC(C)=C([N+](=O)[O-])C1c1ccccc1C(F)(F)F` (stereo not given), the max response in assay [1] (setting [3]) was 76.3%; in assay [1] (setting [6]), 81.3%. In addition, the concentration at half-maximal activity (AC50) in assay [1] (setting [4]) is 35.5 µM [rising, partial curve, poor fit]; in assay [1] (setting [5]) it was 35.5 µM [rising, partial curve, poor fit]; in assay [2] (setting [7]) it was 75.7 µM [falling, partial curve]; in assay [2] (setting [8]), 84.9 µM [falling, single point].
Take `O=S(=O)(c1cccc2c(Cl)cccc12)N1CCCNCC1`: the max response in assay [1] (setting [3]) was 52.5% and 48.9%; in assay [1] (setting [6]), 78.7% and 51.3%. For the same compound, the half-maximal activity concentration (AC50) in assay [1] (setting [4]) is 39.8 µM [rising, single point]; in assay [1] (setting [5]) it was 39.8 µM [rising, single point]; in assay [2] (setting [7]), 42.6 µM [falling, partial curve]; in assay [2] (setting [8]) it was 47.8 µM [falling, partial curve].
As to `N[C@H](C(=O)O)[C@H]1C[C@@H]1C(=O)O`, the max response stood at 38.1% in assay [1] (setting [3]) and 36.2% in assay [1] (setting [6]). The half-maximal activity concentration (AC50) was 0.708 µM [falling, full curve, poor fit] in assay [1] (setting [4]); 0.708 µM [falling, full curve, poor fit] in assay [1] (setting [5]); 84.9 µM [falling, single point] in assay [2] (setting [8]).
Regarding `CC(C)CN(C)c1nc(N)c(C(=O)N=C(N)N)nc1Cl`, the max response in assay [1] (setting [3]) is -8.73%; in assay [1] (setting [6]), -6.76%. The AC50 in assay [1] (setting [4]) was 15.8 µM [falling, partial curve, poor fit]; in assay [1] (setting [5]), 15.8 µM [falling, partial curve, poor fit]; in assay [2] (setting [7]), 75.7 µM [falling, single point]; in assay [2] (setting [8]), 75.7 µM [falling, partial curve, poor fit].
Consider `CCOC(=O)c1cnc2c(cnn2CC)c1NN=C(C)C`, for which the max response in assay [1] (setting [3]) is 110% and 62.1%; in assay [1] (setting [6]), 147% and 64%. Further, the half-maximal activity concentration (AC50) is 1.26 µM [rising, full curve, poor fit] in assay [1] (setting [4]); 1.26 µM [rising, full curve, poor fit] in assay [1] (setting [5]); 75.7 µM [falling, partial curve] in assay [2] (setting [8]).
Consider `Cc1ccc(OCC(O)C(C)NC(C)C)c2c1CCC2` (stereo not given), for which the figures for the max response in assay [1] (setting [3]) and in assay [1] (setting [6]) were 51.9% and 54.1%, respectively. Moreover, the AC50 in assay [1] (setting [4]) is 39.8 µM [rising, single point]; in assay [1] (setting [5]), 44.7 µM [rising, single point]; in assay [2] (setting [7]) it was 95.3 µM [falling, single point]; in assay [2] (setting [8]), 95.3 µM [falling, single point].
`Nc1ccc(N2C(=O)c3ccccc3C2=O)c(Cl)c1`: the figures for the max response in assay [1] (setting [3]) and in assay [1] (setting [6]) were 69.5% and 70.2%, respectively. The half-maximal activity concentration (AC50) in assay [1] (setting [4]) is 0.0447 µM [rising, partial curve, poor fit]; in assay [1] (setting [5]), 0.0447 µM [rising, partial curve, poor fit]; in assay [2] (setting [8]), 75.7 µM [falling, single point].
With `CN1CCc2ccccc2Cc2[nH]c3ccccc3c2CC1`, the max response in assay [1] (setting [3]) is 113% and 33.6%; in assay [1] (setting [6]) it was 143% and 35.5%. In addition, the AC50 in assay [1] (setting [4]) was 4.47 µM [rising, full curve]; in assay [1] (setting [5]), 5.01 µM [rising, full curve] and 44.7 µM [rising, single point]; in assay [2] (setting [8]), 84.9 µM [falling, single point].
